Assay results from PubChem BioAssay AID504332 (National Center for Advancing Translational Sciences (NCATS), 2011).
Screen size: about 350,000 compounds; about 31,000 (8.9%) were called active. Inconclusive results, whose numbers are uncertain, are shown with a selection of clear calls. The call rests on the fitted dose curve; in most records, active means well fitted inhibition curve with a large enough effect; inconclusive means small, poorly fitted or top-dose-only effect; inactive means no such curve, though single readings can be large or run the other way. Where the call is inconclusive, the potency comes from a doubtful curve fit.
Further: nearly all actives have a fitted effect of over 75% in size.
On the % scale 0 is the no-effect control and ±100 the full control effect; potency means the concentration at half of the fitted maximal effect; tags describe the fitted curve by direction and shape.

What follows are compounds tested against Histone-lysine N-methyltransferase EHMT2 (Homo sapiens) (UniProt Q96KQ7) (assay: qHTS Assay for Inhibitors of Histone Lysine Methyltransferase G9a). Details: G9a H3K9 monomethylation, AlphaScreen, 2 h; activity, negative = inhibition: at 59 µM (top of the series) unless noted.
Chain of UniProt Q96KQ7 (Q96KQ7 whole entry, looked up): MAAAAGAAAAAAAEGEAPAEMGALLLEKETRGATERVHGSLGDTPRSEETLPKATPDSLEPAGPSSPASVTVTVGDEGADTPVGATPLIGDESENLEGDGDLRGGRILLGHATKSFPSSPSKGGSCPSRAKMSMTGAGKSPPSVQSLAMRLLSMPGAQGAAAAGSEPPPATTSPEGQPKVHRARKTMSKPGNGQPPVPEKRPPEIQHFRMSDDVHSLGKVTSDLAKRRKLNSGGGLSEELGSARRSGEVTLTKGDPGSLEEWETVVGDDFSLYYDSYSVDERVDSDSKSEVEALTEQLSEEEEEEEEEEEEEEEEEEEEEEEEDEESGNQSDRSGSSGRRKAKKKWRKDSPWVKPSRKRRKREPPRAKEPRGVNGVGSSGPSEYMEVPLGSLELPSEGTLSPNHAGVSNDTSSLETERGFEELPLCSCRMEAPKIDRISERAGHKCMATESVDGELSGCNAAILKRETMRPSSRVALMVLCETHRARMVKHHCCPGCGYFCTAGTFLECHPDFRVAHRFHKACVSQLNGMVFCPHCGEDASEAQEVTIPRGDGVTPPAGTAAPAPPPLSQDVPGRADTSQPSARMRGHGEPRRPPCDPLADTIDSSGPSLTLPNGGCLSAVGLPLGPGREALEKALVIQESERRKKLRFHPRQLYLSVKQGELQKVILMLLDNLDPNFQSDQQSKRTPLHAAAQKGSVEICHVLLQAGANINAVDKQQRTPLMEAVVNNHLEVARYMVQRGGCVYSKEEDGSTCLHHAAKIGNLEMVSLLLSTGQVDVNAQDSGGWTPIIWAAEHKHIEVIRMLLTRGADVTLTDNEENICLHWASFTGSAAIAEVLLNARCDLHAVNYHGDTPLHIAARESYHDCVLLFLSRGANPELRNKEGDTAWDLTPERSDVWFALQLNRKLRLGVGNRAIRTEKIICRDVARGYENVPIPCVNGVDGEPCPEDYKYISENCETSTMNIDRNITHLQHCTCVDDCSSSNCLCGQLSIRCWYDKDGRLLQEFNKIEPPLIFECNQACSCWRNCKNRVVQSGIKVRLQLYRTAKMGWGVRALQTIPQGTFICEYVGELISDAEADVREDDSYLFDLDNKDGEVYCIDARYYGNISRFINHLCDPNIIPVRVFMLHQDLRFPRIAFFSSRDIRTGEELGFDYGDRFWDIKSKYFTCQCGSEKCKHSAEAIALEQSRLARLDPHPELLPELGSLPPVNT
How it was run: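 Step 1: enzyme (final 20 nM) with compound, 15 min RT. Step 2: substrate peptide 500 nM and SAM 20 uM, 2 h RT. Step 3: anti-H3K9me1 antibody and AlphaScreen beads, 10 min, then plate read.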
With `O=C(NC(=S)Nc1ccc(Cc2ccncc2)cc1)c1ccc(F)cc1` the Potency was inconclusive: 89.1 µM [inhibitor, partial curve, poor fit].
With `O=C(Nc1c(C(=O)N2CCN(c3ccccc3)CC2)oc2ccccc12)c1ccco1` the Potency was inconclusive: 20 µM [inhibitor, partial curve, poor fit].
With `COc1c(/C=N/NC(=O)[C@H]2C[C@@H]2c2ccccc2)c(CCN(C)C(C)=O)cc2c1OCO2` the Potency was “inactive”.
With `Cc1ccc(Nc2nc(=O)[nH]nc2C)cc1` the Potency was inconclusive: 89.1 µM [inhibitor, single point].
For `CC(=O)N1N=C(c2cccc([N+](=O)[O-])c2)OC1c1ccc(Br)cc1` (centres undefined), the Potency was active: 44.7 µM.
`CC(=O)N1CCN(S(=O)(=O)c2cccc(C(=O)NC3CC3)c2)CC1` was tested, and the activity, negative = inhibition was inactive: -44.4% [at 12.7 µM].
For `NC(=O)C1(N2CCCCC2)CCN(Cc2nc3ccccc3c(=O)[nH]2)CC1`, the Potency was inconclusive: 10 µM [inhibitor, partial curve, poor fit].
In the case of `O=C(NNS(=O)(=O)c1ccccc1F)c1cccc(S(=O)(=O)N2CCOCC2)c1`, the Potency is reported as inconclusive: 39.8 µM [inhibitor, single point].
For `Cc1cccn2c(=O)c(C(=O)NCCc3ccccc3)c(O)nc12`, the Potency was “inactive”.
In the case of `Cc1ccccc1NC(=O)/C(C#N)=C\c1cccnc1`, the Potency is reported as inconclusive: 56.2 µM [inhibitor, partial curve, poor fit].
In the case of `COc1ccc(-c2nsc(SCC(=O)Nc3ccc4c(c3)OCO4)n2)cc1`, the Potency is reported as inconclusive: 39.8 µM [inhibitor, single point].
`CCCCn1c(N)c(N(CCOC)C(=O)c2oc3ccc(OC)cc3c2C)c(=O)[nH]c1=O` was tested, and the Potency was inconclusive: 89.1 µM [inhibitor, single point].
`Nc1cc(Cl)c(N)cc1Cl` was tested, and the Potency was inconclusive: 31.6 µM [inhibitor, single point].
For `CN(CC(=O)Nc1ccccc1Br)CC(=O)Nc1ccccc1-c1ccccc1`, the activity, negative = inhibition was inactive: 43.8% [at 12.7 µM].
In the case of `Cc1ccc(S(=O)(=O)CCC(=O)c2cccc([N+](=O)[O-])c2)cc1`, the Potency is reported as active: 1.41 µM.
With `COCCCN(CC(=O)Nc1ccc(N2CCOCC2)cc1)S(=O)(=O)c1ccc(Cl)cc1` the Potency was inconclusive: 39.8 µM [inhibitor, partial curve, poor fit].
`CCCCCCSc1ccc([C@H]2N[C@@](C)(C(=O)OC)[C@H]3C(=O)N(C)C(=O)[C@@H]23)cc1` was tested, and the activity, negative = inhibition was inactive: 20.7% [at 2.33 µM].
In the case of `CCCCCNC(=O)c1ccc2c(=O)n(CCCN3CCCC3=O)c(=S)[nH]c2c1`, the Potency is reported as active: 6.31 µM.
In the case of `Cc1ccc(S(=O)(=O)N(C)C)cc1NC(=O)COC(=O)c1ccc2ccccc2n1`, the Potency is reported as inconclusive: 25.1 µM [inhibitor, single point].
In the case of `O=C(O)c1cnn2cc(-c3[nH]ncc3[N+](=O)[O-])cnc12`, the Potency is reported as inconclusive: 39.8 µM [inhibitor, single point].
In the case of `COc1ccc(S(=O)(=O)c2ccc(OC)cc2)cc1`, the Potency is reported as “inactive”.
For `CCN(CC)CCc1c(C)[nH]c(C(=O)OCc2ccccc2)c1C`, the Potency was active: 79.4 µM.
`Cc1ccnc(N2C(=O)c3ccccc3C2Nc2ccc3c(c2)OCCO3)c1` (centres undefined) was tested, and the Potency was active: 79.4 µM.
`COCCn1nnnc1C(c1ccccc1)N1CCN(c2ccccc2)CC1` (centres undefined) was tested, and the Potency was inconclusive: 39.8 µM [inhibitor, single point].
For `CCN1CCN(C(c2cc(OC)ccc2OC)c2nnnn2Cc2ccccc2)CC1` (centres undefined), the Potency was inconclusive: 35.5 µM [inhibitor, single point].
In the case of `C=CCn1c(SCC(=O)c2ccc(Cl)cc2)nnc1-c1ccc2c(c1)OCO2`, the Potency is reported as inconclusive: 63.1 µM [inhibitor, partial curve, poor fit].
`COc1ccc(S(=O)(=O)N2CCOCC2)cc1NC(=O)c1cccc2c(=O)c(C)c(-c3ccccc3)oc12` was tested, and the Potency was inconclusive: 79.4 µM [inhibitor, single point].
In the case of `CCOC(=O)CNCCC(=O)c1ccc(Br)cc1`, the Potency is reported as active: 7.08 µM.
With `O=C(O)C1SCCN1S(=O)(=O)c1ccc(N=NN2CCOCC2)cc1` (centres undefined) the Potency was inconclusive: 56.2 µM [inhibitor, single point].
For `CCOC(=O)C1C(=O)C=C(c2ccc([N+](=O)[O-])cc2)CC1c1ccccc1` (centres undefined), the Potency was inconclusive: 35.5 µM [inhibitor, partial curve, poor fit].
With `CN(Cc1ccccc1)S(=O)(=O)c1ccc(NC(=S)NC(=O)C(C)(C)C)cc1` the Potency was active: 3.16 µM.
For `O=C(Cc1noc2ccccc12)NNC(=S)Nc1ccc(Cl)cc1`, the Potency was inconclusive: 2.51 µM [inhibitor, full curve].
For `Nc1c(-c2cccc([N+](=O)[O-])c2)nc2ccccn12`, the Potency was active: 79.4 µM.
In the case of `COc1cc(NC(=S)Nc2cccnc2)cc(OC)c1`, the Potency is reported as active: 15.8 µM.
`CN(CC(=O)Nc1ccc(N2CCOCC2)cc1)CC(=O)Nc1ccc(Cl)cc1[N+](=O)[O-]` was tested, and the Potency was active: 56.2 µM.
For `O=c1[nH]snc1N1CCOCC1`, the Potency was inconclusive: 8.91 µM [inhibitor, full curve, poor fit].
In the case of `CC(=O)Nc1ccc(-c2nnc(SCc3ccc(C)cc3)n2C)cc1`, the Potency is reported as active: 5.01 µM.
With `Cc1ccc(NC(=O)C(=O)c2cc(C)n(-c3ccc(F)cc3)c2C)cc1C` the Potency was “inactive”.
With `COc1ccc(NC(=O)CN(C)C(=O)Cc2ccc(-c3ccccc3)cc2)cc1` the Potency was inconclusive: 3.16 µM [inhibitor, single point].
For `CCOC(=O)c1c(NC(=O)C2COc3ccccc3O2)sc2c1CCN(Cc1ccccc1)C2` (centres undefined), the Potency was inconclusive: 79.4 µM [inhibitor, single point].
For `S=C(NCc1ccccc1)N1CCN(Cc2ccc3c(c2)OCO3)CC1`, the Potency was “inactive”.
For `O=C(CN1CCN(CC(=O)Nc2ccccc2F)CC1)Nc1cccc(F)c1`, the Potency was inconclusive: 70.8 µM [inhibitor, single point].
With `CSc1ncccc1C(=O)N1CCN(S(=O)(=O)c2cc(C)ccc2C)CC1` the Potency was “inactive”.
For `O=C(NNC(=S)NC(=O)c1ccccc1[N+](=O)[O-])c1ccccc1[N+](=O)[O-]`, the Potency was inconclusive: 10 µM [inhibitor, partial curve, poor fit].
In the case of `CC(C)c1ccc(C(=O)NCCCN(C)C)cc1`, the Potency is reported as inconclusive: 0.355 µM [inhibitor, partial curve, poor fit].
In the case of `Nc1nonc1-n1nnc(C(=O)O)c1-c1cccs1`, the Potency is reported as inconclusive: 0.708 µM [inhibitor, full curve, poor fit].
`CCCn1c(=NC(=O)CS(=O)(=O)c2ccccc2)sc2cc(S(C)(=O)=O)ccc21` was tested, and the Potency was “inactive”.
`CCOc1ccc2nc(C)cc(Nc3ccc(N4CCOCC4)cc3)c2c1` was tested, and the Potency was inconclusive: 50.1 µM [inhibitor, partial curve, poor fit].
With `CCN(c1cccc(C)c1)S(=O)(=O)c1nnc(NC(=O)c2ccccc2Cl)s1` the Potency was “inactive”.
For `O=C(CSc1nnc(NC(=O)c2c(F)cccc2F)s1)NCC1CCCO1` (centres undefined), the Potency was active: 20 µM.
With `COc1ccc(/C=N/NC(=S)Nc2ccccc2[N+](=O)[O-])cc1O` the Potency was inconclusive: 39.8 µM [inhibitor, single point].
In the case of `O=S1(=O)CC2SC(=S)N(Cc3ccccc3)C2C1` (centres undefined), the Potency is reported as “inactive”.
`Cc1cc(C)n(-c2ccc(Cl)c(C(=O)O)n2)n1` was tested, and the Potency was “inactive”.
With `CC(C)OCCCn1c(=O)c2ccccc2n2c(-c3ccccc3)nnc12` the Potency was inconclusive: 39.8 µM [inhibitor, single point].
For `CCc1ccc(C(=O)NNC(=O)C2CSC3(C)CCC(=O)N23)cc1` (centres undefined), the Potency was “inactive”.
In the case of `N#Cc1ccccc1Cn1c(=O)n(Cc2ccc(C(=O)NCc3ccco3)cc2)c(=O)c2sccc21`, the Potency is reported as inconclusive: 79.4 µM [inhibitor, single point].
With `O=C1CC(c2ccc(Cl)cc2)CC(O)=C1C=NCCN1CCNCC1` (centres undefined) the Potency was inconclusive: 89.1 µM [inhibitor, single point].
`O=C(NCc1ccco1)c1ccc(Cn2c(SCc3ccccc3)nc3cccnc32)cc1` was tested, and the Potency was inconclusive: 28.2 µM [inhibitor, partial curve, poor fit].
`Cc1ccccc1-n1nc2c(c1NC(=O)CCCl)CSC2` was tested, and the activity, negative = inhibition was inactive: 6.13% [at 2.33 µM].
For `O=S1(=O)N=C(N/N=C/c2ccco2)c2ccccc21`, the Potency was inconclusive: 89.1 µM [inhibitor, single point].
With `COC(=O)Nc1ccc(S(=O)(=O)N2CCCC(C(=O)O)C2)cc1` (centres undefined) the Potency was “inactive”.
With `Cc1cccc(-c2nc(CS(=O)CC(=O)N3CCCCC3)c(C)o2)c1` (centres undefined) the Potency was inconclusive: 100 µM [inhibitor, single point].
`O=C(COC(=O)C12CC3CC(CC(Br)(C3)C1)C2)NNC(=O)c1ccccc1` was tested, and the Potency was inconclusive: 7.94 µM [inhibitor, single point].
In the case of `CC(=O)OC1CC(OC(C)=O)[C@]2(C)C(CC(=O)[C@]3(C)C2CC[C@@]2(C)C(c4ccoc4)OC(=O)C4O[C@@]423)C1(C)C` (some centres undefined), the activity, negative = inhibition is reported as inconclusive: -52.5% [inhibitor] [at 2.33 µM].
With `CC(C)CCOc1ccc(Cn2c(=O)oc3ccccc32)cc1` the Potency was “inactive”.
`Oc1oc(-c2ccccc2)nc1C=Nc1ccccc1` was tested, and the Potency was inconclusive: 79.4 µM [inhibitor, single point].
With `CCOC(=O)C(NC(=O)Nc1ccc(C(N)=O)cc1)(c1ccccc1)C(F)(F)F` (centres undefined) the Potency was inconclusive: 20 µM [inhibitor, partial curve, poor fit].
In the case of `Cc1occc1-c1n[nH]c(=S)n1-c1ccccc1`, the Potency is reported as active: 5.01 µM.
With `COc1ccc(NCc2cccn2-c2nnc(N3CCCCCC3)s2)cc1` the Potency was inconclusive: 28.2 µM [inhibitor, single point].
